Assay results published in publication PMC11050252.
No constants are given. Whether binding was seen depends on the method and setting. In cells and extracts the contact can be indirect. Some binding calls cover weakened binding; strength is not graded here.

The chains behind the UniProt entries cited, without tags or fusion partners.
UniProt Q91YS8: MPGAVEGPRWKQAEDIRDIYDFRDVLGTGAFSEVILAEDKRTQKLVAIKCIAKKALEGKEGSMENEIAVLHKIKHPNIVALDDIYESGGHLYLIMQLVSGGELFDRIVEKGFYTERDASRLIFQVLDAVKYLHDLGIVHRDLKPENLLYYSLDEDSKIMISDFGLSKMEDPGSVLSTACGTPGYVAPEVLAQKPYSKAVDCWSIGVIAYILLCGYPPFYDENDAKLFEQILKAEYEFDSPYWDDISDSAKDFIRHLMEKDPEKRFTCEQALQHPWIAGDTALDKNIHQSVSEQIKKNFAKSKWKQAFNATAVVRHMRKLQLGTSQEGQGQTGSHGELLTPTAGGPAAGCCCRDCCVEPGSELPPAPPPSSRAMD
UniProt Q8K1M6: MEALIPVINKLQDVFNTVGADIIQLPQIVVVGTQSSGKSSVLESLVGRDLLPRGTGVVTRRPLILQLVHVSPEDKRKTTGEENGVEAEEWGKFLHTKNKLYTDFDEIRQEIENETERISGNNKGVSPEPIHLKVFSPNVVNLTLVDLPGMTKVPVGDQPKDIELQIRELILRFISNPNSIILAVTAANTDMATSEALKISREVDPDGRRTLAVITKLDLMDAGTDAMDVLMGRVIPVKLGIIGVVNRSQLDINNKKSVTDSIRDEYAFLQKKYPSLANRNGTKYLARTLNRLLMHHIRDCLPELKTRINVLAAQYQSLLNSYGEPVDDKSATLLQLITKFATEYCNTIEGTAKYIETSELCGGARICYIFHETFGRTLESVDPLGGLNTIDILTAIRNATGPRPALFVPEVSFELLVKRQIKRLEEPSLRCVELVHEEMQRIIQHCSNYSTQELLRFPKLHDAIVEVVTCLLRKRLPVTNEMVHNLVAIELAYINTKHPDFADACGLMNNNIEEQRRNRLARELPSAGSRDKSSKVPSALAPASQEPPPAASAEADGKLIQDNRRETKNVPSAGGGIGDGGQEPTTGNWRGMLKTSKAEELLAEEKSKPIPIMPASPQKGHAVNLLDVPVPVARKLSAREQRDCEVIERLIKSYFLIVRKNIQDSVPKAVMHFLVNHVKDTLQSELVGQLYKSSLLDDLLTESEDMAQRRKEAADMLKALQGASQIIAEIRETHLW
UniProt Q9QZL0: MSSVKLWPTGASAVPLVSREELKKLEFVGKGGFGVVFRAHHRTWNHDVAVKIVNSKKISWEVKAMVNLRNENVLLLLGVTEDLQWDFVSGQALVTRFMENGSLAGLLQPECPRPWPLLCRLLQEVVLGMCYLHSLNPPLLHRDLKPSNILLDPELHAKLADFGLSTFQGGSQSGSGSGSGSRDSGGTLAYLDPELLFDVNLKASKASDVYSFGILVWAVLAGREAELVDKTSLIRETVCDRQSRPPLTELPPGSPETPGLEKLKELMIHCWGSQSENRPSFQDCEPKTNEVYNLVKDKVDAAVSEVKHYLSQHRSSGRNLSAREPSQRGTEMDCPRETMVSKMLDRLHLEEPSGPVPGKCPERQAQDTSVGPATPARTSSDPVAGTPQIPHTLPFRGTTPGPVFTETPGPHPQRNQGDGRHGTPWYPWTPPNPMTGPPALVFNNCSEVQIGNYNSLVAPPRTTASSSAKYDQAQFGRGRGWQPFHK

Tests used:
[1] = biological target: calmodulin-dependent protein kinase 1 (CaMK1) (mouse (endogenous in MVEC)) (UniProt Q91YS8); experiment: condition: only untreated and vehicle control treated cells (no necroptosis induction); co-IP; endogenous proteins of untreated and vehicle control treated mouse MVEC (no necroptosis induction); RIPA lysate, antibody, protein G agarose, Western blot
[2] = biological target: T1, calmodulin-dependent protein kinase 4 (CaMK4) (mouse (endogenous in MVEC)) (UniProt P08414); experiment: as above
T1 sequence: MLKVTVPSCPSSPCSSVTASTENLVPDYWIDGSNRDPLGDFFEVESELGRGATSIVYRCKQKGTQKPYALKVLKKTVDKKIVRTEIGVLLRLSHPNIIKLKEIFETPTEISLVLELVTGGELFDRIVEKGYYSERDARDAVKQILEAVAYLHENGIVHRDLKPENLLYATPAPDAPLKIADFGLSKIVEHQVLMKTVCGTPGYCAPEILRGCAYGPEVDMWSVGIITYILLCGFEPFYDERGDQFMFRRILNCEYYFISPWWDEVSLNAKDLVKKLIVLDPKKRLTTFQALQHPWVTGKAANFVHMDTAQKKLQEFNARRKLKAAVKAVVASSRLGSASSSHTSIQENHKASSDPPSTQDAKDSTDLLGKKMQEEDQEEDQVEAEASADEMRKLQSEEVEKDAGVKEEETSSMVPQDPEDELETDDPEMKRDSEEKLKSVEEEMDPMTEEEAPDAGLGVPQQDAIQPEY

[3] = biological target: T2, phosphoglycerate mutase 5 (PGAM5) (mouse (endogenous in MVEC)) (UniProt Q8BX10); experiment: as above
T2 sequence: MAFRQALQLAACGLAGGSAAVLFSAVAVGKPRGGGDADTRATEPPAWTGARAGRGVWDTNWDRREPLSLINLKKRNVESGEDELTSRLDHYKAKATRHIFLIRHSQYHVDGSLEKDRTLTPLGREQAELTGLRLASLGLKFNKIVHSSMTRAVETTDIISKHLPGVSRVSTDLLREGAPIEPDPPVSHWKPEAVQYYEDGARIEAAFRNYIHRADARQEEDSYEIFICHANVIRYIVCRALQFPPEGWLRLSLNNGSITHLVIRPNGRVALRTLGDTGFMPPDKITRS

[4] = biological target: calmodulin-dependent protein kinase 1 (CaMK1) (mouse (endogenous in MVEC)) (UniProt Q91YS8); experiment: co-IP; endogenous proteins of mouse MVEC induced to undergo necroptosis (TNFα + Smac mimetic BV6 + caspase-8 inhibitor z-IETD), collected after 4 h; RIPA lysate, 1 μg antibody 1-2 h at 4 °C, protein G agarose overnight at 4 °C, Western blot; rabbit IgG as control; in some panels cells treated 24 h before with vehicle or siRNA to CaMK1, CaMK2, CaMK4 or PGAM5
[5] = biological target: T1, calmodulin-dependent protein kinase 4 (CaMK4) (mouse (endogenous in MVEC)); experiment: as above
[6] = biological target: T2, phosphoglycerate mutase 5 (PGAM5) (mouse (endogenous in MVEC)); experiment: as above
[7] = biological target: calmodulin-dependent protein kinase 1 (CaMK1) (mouse (endogenous in MVEC)) (UniProt Q91YS8); experiment: as above; remark: listed apart in the source
[8] = biological target: T1, calmodulin-dependent protein kinase 4 (CaMK4) (mouse (endogenous in MVEC)); experiment: as above; remark: listed apart in the source

For “dynamin-related protein-1 (Drp1) (from UniProt Q8K1M6 1-736)”, which binding [1] is on record?
Its binding is “no binding”.

What about the binding [2] of the same molecule?
Its binding is “no binding”.

And the binding [3]?
The binding was “no binding”.

And the binding [4]?
Its binding is “binds”.

And the binding [5]?
The binding was “binds”.

What about the binding [6] of the same molecule?
The binding was “binds”.

What does the source list for “receptor-interacting protein kinase 3 (RIPK3) (from UniProt Q9QZL0 1-486)”?
binding [4]: binds; binding [5]: binds

B1: phosphoglycerate mutase 5 (PGAM5) (protein, UniProt Q8BX10 1-288)
chain: T2 sequence
B1 was tested. Which binding [7] did it give?
Its binding is “no binding”.

And the binding [8]?
The binding was “no binding”.
